Patent US20200121803A1 (published 2020)

Biological target: T1, human CD98 on the cell surface (human)
T1 chain: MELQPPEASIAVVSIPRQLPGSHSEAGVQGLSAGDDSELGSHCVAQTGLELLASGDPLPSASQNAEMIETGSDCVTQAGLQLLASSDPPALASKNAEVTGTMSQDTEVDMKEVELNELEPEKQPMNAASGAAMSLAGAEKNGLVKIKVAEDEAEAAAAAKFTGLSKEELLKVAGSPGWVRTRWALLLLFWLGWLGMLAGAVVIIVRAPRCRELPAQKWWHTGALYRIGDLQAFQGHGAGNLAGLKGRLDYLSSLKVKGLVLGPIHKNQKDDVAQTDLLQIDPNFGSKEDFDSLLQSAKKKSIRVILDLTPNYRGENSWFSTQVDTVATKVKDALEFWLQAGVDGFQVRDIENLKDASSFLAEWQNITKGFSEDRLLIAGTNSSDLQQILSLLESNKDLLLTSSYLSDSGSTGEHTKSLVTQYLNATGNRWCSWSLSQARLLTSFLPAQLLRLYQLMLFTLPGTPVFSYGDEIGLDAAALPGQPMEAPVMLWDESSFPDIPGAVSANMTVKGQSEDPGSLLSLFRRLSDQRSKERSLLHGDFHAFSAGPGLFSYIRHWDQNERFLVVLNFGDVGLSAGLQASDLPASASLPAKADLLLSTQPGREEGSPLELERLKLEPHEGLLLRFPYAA
Assay: cell-based or functional assay

B1: ChAb4-CZ (other)
VH: EVKLVESGGGLVQPGGSLRLSCTTSGFTFTDYYMSWVRQPPGKALEWLGFIRNKATIYTTEYSASVKGRFTISRDNSQSILYLQMNTLRAEDSATYYCARASYGNSEGWFAYWGQGTLVTVSA
VL: DIVMSQSPSSLAVSVGEKVTMS[about 80 residues omitted here]FGGGTKLEIK
modifications: synthon CZ on reduced interchain Cys of the constant regions (sites not numbered)
Question: With B1 as the binder, how does the “ADC potency, IC50 (nM), H146 (SCLC) growth inhibition” value read?
Answer: 0.043 nM

Question: And the “ADC potency, IC50 (nM), H2170 (NSCLC) growth inhibition” value?
Answer: 0.12 nM

Question: What about the “ADC potency, IC50 (nM), MOLT4 (leukemia) growth inhibition” value of the same binder?
Answer: 0.03 nM
